From article PMC4336329 (PLoS ONE, 2015)
Hit rate of the full screen: of about 310,000 compounds, about 14,000 (4.5%) showed an effect of 50% or more. The effect is printed as a negative number. This is one part of the list.

What follows are compounds tested against human ether-à-go-go-related gene (hERG) potassium channel (human, UniProt Q12809) (assay: primary screen, population patch clamp on CHO cells stably expressing hERG).
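Note: peak tail current of the secondary pulse compared with the same well before compound.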

human ether-à-go-go-related gene (hERG) potassium channel, sequence (Q12809 whole entry, looked up): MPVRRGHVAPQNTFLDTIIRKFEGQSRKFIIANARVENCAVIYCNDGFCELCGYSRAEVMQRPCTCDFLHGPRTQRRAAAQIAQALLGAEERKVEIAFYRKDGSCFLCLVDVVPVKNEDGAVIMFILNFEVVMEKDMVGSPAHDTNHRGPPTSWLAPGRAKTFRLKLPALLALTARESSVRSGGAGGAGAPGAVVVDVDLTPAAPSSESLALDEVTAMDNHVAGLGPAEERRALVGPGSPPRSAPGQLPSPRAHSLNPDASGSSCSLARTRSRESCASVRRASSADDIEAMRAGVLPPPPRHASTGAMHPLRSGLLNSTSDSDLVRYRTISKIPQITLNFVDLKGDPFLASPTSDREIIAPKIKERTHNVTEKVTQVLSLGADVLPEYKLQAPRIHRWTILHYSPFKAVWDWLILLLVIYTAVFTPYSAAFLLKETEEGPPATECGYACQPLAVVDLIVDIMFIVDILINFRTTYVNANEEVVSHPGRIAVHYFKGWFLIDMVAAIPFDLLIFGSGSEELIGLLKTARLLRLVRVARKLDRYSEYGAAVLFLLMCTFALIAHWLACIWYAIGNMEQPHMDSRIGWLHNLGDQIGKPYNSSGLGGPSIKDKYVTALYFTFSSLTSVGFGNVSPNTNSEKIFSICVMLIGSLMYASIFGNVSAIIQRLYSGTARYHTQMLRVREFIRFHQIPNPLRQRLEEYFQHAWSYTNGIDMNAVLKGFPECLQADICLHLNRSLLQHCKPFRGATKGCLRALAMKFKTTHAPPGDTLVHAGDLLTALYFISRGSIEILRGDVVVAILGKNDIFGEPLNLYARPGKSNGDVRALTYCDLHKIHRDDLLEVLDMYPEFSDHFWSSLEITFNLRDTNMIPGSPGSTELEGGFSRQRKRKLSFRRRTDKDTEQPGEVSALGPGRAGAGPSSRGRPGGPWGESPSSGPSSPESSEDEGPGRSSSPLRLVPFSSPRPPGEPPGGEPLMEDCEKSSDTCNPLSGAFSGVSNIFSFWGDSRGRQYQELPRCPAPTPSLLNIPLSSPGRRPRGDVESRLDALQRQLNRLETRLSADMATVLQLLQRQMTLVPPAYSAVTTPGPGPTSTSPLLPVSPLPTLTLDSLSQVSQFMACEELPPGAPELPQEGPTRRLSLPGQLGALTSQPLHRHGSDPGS

Row | SMILES | hERG current change (%, negative = inhibition) at 10uM [%]
1 | CC(=O)c1c(C)[nH]c(C(=O)NCC2CCCCC2)c1C | -4.62
2 | Cc1nc(N2CCN(c3ccccn3)CC2)c2c(C)c(C(=O)Nc3ccc(Br)cc3C)sc2n1 | 11.6
3 | CCn1c(N2CCN(C(=O)C34CC5CC(CC(C5)C3)C4)CC2)nc2ccccc21 | -37.9
4 | CN1/C(=C\C(=O)C[n+]2ccc(C(=O)c3ccccc3)cc2)C(C)(C)c2ccccc21.[Cl-] | 2.61
5 | CCOc1ccccc1NC(=O)CSc1nc(=O)n(CCCN2CCOCC2)c2c1CCC2 | -26.4
6 | CC(C)CCCC(C)NC(=O)c1cc(S(=O)(=O)N2CCCCC2)ccc1N1CCOCC1 (stereo not shown) | -36.8
7 | Cc1cccc2cc(CN(CC3CCCO3)C(=O)NC3CCCCC3)c(=O)[nH]c12 (stereo not shown) | -9.99
8 | Cc1ccc(C)c(N2N=C(C(=O)N(CC(C)C)c3c(N)n(Cc4ccccc4)c(=O)[nH]c3=O)CCC2=O)c1 | 13.6
9 | CCn1c(=O)n(CC)c2cc(N3CCCC3)c(NC(=O)c3ccc(C)cc3)cc21 | 1.24
10 | COc1ccccc1C(=O)NCCSCc1ccccc1Cl | -15.4
11 | CCN1CCN(C(=O)c2ccccc2NC(=O)c2ccc(Cl)cc2)CC1 | -45.8
12 | COc1cccc(NC(=O)COc2c(F)c(F)c(C(F)(F)F)c(F)c2F)c1 | 8.02
13 | CCN1C(=O)/C(=C/C=C2/Sc3ccccc3N2CCO)SC1=S | 15.3
14 | CCc1ccc(-c2nn(Cc3ccccc3)cc2/C=C/C(=O)O)cc1 | 17.9
15 | COC(=O)CSc1nc2cc(C)ccc2cc1C#N | 19.1
16 | Cc1ccc(C)c(NC(=O)CCC(=O)N/N=C/c2cc([N+](=O)[O-])ccc2O)c1 | -26.2
17 | O=C(O)c1ccc(-n2cccn2)nc1 | 14.2
18 | Cc1ccc2cc3cc(C(=O)NCCN4CCOCC4)oc3nc2c1 | -14.5
19 | CC(Sc1ncnc2sc(-c3ccccc3)cc12)C(N)=O (stereo not shown) | 11.7
20 | COc1cccc(C(=O)Nc2sc3c(c2C(=O)O)CCCC3)c1 | 32
21 | Cc1cc(C)cc(-n2c(C)cc(/C=N/NC(=O)c3cccc([N+](=O)[O-])c3C)c2C)c1 | 15.8
22 | COc1ccc(-n2c(N)c(C(=O)NCc3ccco3)c3nc4ccccc4nc32)c(OC)c1 | 0.913

Row | SMILES | hERG current change (%, negative = inhibition) at 10uM [%]
23 | C/C(=N\Nc1ccc(C#N)cc1[N+](=O)[O-])c1ccc(C)o1 | -7.4
24 | Cc1ccc(NC(=O)N2CCCc3ccccc32)cc1C | -29.2
25 | COc1ccc(S(=O)(=O)N2CCOCC2)cc1NC(=O)C1CCCN1C(=O)c1cccs1 (stereo not shown) | -3.94
26 | CCCC(C)C(=O)Nc1cccc(NC(C)=O)c1 (stereo not shown) | 5.4
27 | CCOC(=O)C1C(=O)NC(SCC(=O)OC)=C(C#N)C1c1ccccc1OCC (stereo not shown) | -15.8
28 | O=C(CCc1ccccc1)N=C1SC2CS(=O)(=O)CC2N1c1ccccc1 (stereo not shown) | 5.51
29 | COc1ccc(OCCn2c(N)nc3ccccc32)cc1 | -67.4
30 | O=C(CSc1nnc(NC(=O)C2CC(=O)N(c3ccc(F)cc3)C2)s1)NCc1ccco1 (stereo not shown) | 6.11
31 | CN(C)S(=O)(=O)c1cccc(NC(=O)c2ccncc2)c1 | -17.6
32 | CCOC(=O)c1c(CSc2cccs2)n(C)c2cc(Br)c(O)c(CN(C)C)c12.Cl | -68.3
33 | O=S(=O)(c1ccc(Cl)nc1)N1CCCCC1 | -1.17
34 | COCCNc1nc(NCc2ccccc2)c2cnn(C)c2n1 | 10.1
35 | CCOCCn1c(SCC(=O)OCc2ccccc2)nc2c1c(=O)[nH]c(=O)n2C | -23.6
36 | COc1ccc(C2=NS(=O)(=O)N(C)C(C(=O)N3CCOCC3)=C2)cc1 | -13
37 | CCOc1ccc(CSC2=NCCN2)cc1[N+](=O)[O-].Cl | -83.5
38 | Nc1c(C(=O)NC2CCCC2)sc2nc(-c3cccs3)ccc12 | 16.3
39 | CCN(C(=O)CCN1C(=O)c2ccccc2S1(=O)=O)c1ccccc1 | -16.6
40 | Cc1nc(Cl)sc1C(=O)NC(C)c1ccc(Cl)cc1 (stereo not shown) | -3.56
41 | NS(=O)(=O)c1ccc(N2CCCC2=O)c([N+](=O)[O-])c1 | 17.4
42 | COc1cc(/C=C2\C(=O)N(c3ccccc3)N=C2C)ccc1Oc1ccc([N+](=O)[O-])cc1[N+](=O)[O-] | 25.9
43 | Cc1ccc(CNC(=O)c2ccc3c(c2)S(=O)(=O)c2ccccc2C3=O)o1 | -12.2
44 | CCOc1ccccc1Nc1nnc(Cc2ccccc2Cl)c(=O)[nH]1 | -2.71

Row | SMILES | hERG current change (%, negative = inhibition) at 10uM [%]
45 | Cc1occc1-c1nnc(-c2cc([N+](=O)[O-])cc([N+](=O)[O-])c2)o1 | -6.12
46 | Cc1nc(C(=O)Nc2ccc(Cl)cc2Cl)nn1-c1cc(OC(C)C)c(Cl)cc1Cl | 9.62
47 | Cn1cc(Br)c(NS(=O)(=O)c2ccc(Cl)s2)n1 | 3.37
48 | O=C1c2cccc3cccc(c23)C(=O)N1c1cccc(O)c1 | 17.3
49 | CC(=O)c1c(C)[nH]c(C(=O)OCc2nnc(-c3ccccc3)o2)c1C | 5.33
50 | Cc1ccc(/C=C2\C(=O)NC(=S)N(c3ccccc3F)C2=O)s1 | -2.71
51 | CCOC(=O)c1cnc(-n2nc(C)cc2C)nc1NCc1ccc2c(c1)OCO2 | 2.07
52 | C[C@H]1CCCC(=O)CCC/C=C/c2cc(O)cc(O)c2C(=O)O1 | 1.43
53 | CN(C)/C=C/C(=O)c1cnc(-c2cccc(Cl)c2)s1 | 5.97
54 | CCCCCc1nnc(NS(C)(=O)=O)s1 | 2.81
55 | Cc1ccc(C(=O)N/C(=C/c2ccc(-c3cc(C(F)(F)F)ccc3Cl)o2)C(=O)NCc2cccnc2)cc1 | -1.72
56 | O=C(N/N=C\c1ccc(Br)cc1)c1ccc(Cn2cccn2)o1 | -34.1
57 | COC(=O)Cn1c(=NC(=O)c2cc(-c3cccs3)nc3ccccc23)sc2cc(S(N)(=O)=O)ccc21 | 9.14
58 | COc1ccc(CCN=C(N)NS(=O)(=O)c2cc(F)ccc2OC)cc1 | 12.4
59 | CC(C)NC(=S)N1CCC(Cc2ccccc2)CC1 | -2.26
60 | COc1ccc(CN2CCCCC2C(=O)Nc2ccc(OC)c(OCC(C)C)c2)cc1OC (stereo not shown) | 0.345
61 | CCN(CC(=O)Nc1ccc2c(c1)OCCO2)C(=O)CN1C(=O)NC(C)(c2ccc(C)cc2)C1=O (stereo not shown) | -18
62 | O=C(Cn1nnc2c(cnn2-c2ccccc2)c1=O)N1CCN(c2ccccc2F)CC1 | -20.5
63 | CC(=O)c1ccc(S(=O)(=O)N2CCN(c3nc(-c4cccnc4)nc4ccccc34)CC2)cc1 | -40.4
64 | Cc1cccc(NC(=S)Nc2ccc3cn[nH]c3c2)c1 | 1.96
65 | CC12c3ccccc3C(c3ccccc31)C1C(=O)N(Cc3cccnc3)C(=O)[C@H]12 (stereo partly shown) | -15.6
66 | Cc1ccccc1CN1CCNC(=O)C1CC(=O)NC1CCCCCCC1 (stereo not shown) | -4.98

Row | SMILES | hERG current change (%, negative = inhibition) at 10uM [%]
67 | Cc1ccc(C(=O)NCCN2CCNC2=O)cc1 | 12.9
68 | O=C(NC1(C(F)(F)F)N=C2SCCN2C1=O)c1cccnc1 (stereo not shown) | 15.7
69 | CCOc1ccc(C(=O)NC(=S)Nc2cccnc2)cc1 | 4.34
70 | Cc1cc(NC(=O)CC#N)n(-c2nc3ccccc3[nH]2)n1 | 0.562
71 | CC(=O)Oc1ccc2nc(CN3C(=O)c4ccc([N+](=O)[O-])cc4C3=O)oc(=O)c2c1 | 10
72 | O=C(OC(C(=O)NCc1ccco1)C(OC(=O)c1ccccc1)C(=O)NCc1ccco1)c1ccccc1 (stereo not shown) | -0.223
73 | O=C(CCCN1C(=O)/C(=C/c2cccs2)SC1=S)NNC(=O)c1ccncc1 | 10.4
74 | CCCc1cc(=O)[nH]c(SCC(=O)N(CC)C2CCS(=O)(=O)C2)n1 (stereo not shown) | 13.2
75 | FC(F)(F)c1nnc(-c2ccccc2)nc1Oc1ccccc1 | 12.9
76 | COc1ccc([N+](=O)[O-])cc1NS(=O)(=O)c1ccc(Cl)c(C(=O)Nc2sc3c(c2C#N)CCCCC3)c1 | 26.7
77 | O=C(NCC1OCCc2ccccc21)c1ccco1 (stereo not shown) | 5.85
78 | O=C(Nc1ncccn1)c1cc(-c2cccc(Br)c2)nc2ccccc12 | -5.26
79 | COc1ccccc1OCc1ccc(C(=O)c2ccccc2)cc1 | 17.1
80 | CCSc1nc(N2CCOCC2)c2ccccc2n1 | -28.9
81 | COc1ccc(-c2csc(N3CCN(C(=O)c4ccccc4)CC3)n2)cc1 | 13.1
82 | Cc1c(Cl)c(-c2n[nH]c(=S)n2-c2ccc(F)cc2)nn1C | 14.1
83 | COc1cc(CNS(=O)(=O)c2ccc3c(c2)CC(C)N3C(C)=O)cc(OC)c1OC (stereo not shown) | 18.6
84 | CCc1ccccc1NC(=O)CSc1nc2ccccc2nc1N1CCOCC1 | -15.1
85 | COc1ccc(NC(=S)NNC(=O)c2cccs2)cc1 | 18
